The list shows a part of the results.

The target in this test is T1, MBP-FoxP1dN (Mus musculus, UniProt P58462 326-579).
T1 sequence: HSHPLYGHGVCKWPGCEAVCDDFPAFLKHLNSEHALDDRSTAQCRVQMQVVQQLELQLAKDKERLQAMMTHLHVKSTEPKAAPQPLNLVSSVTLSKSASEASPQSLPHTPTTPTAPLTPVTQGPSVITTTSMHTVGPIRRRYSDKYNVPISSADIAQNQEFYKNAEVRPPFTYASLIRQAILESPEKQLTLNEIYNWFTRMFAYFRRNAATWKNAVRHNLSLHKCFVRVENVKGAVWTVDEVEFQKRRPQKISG
Put plainly: PD-seq (MBP pull-down with sequencing); 20 mM Tris-HCl pH 7.5, 100 mM NaCl, 1.5 mM MgCl2, 0.4 uM protein, 0.1 uM dsDNA library, 30 min, room temperature, amylose pull-down; high values mean tight binding. As to conditions: protein: recombinant; tags: His6-MBP; chain copies: 2; dsDNA, one strand shown. The essentials:
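His6-MBP-tagged mouse FoxP3 or FoxP1 fragment lacking the N-terminus, expressed in E. coli, was mixed at 0.4 µM with 0.1 µM Klenow-filled double-stranded degenerate DNA library. Incubation was 30 min at room temperature in Tris pH 7.5 buffer with NaCl and MgCl2. Complexes were caught on amylose resin and washed three times; DNA was released with proteinase K, PCR-barcoded and Illumina-sequenced. Binding is reads-per-million enrichment, pull-down over input, with replicates pooled.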
As to “GATGATTGTTCTCCCAGCTGATGAATTACCCGAATCGAGTAAACAAATTTTCCTAATCTTTCTGTTCAAGCGCCATCTAC”, the binding signal was 0.916 RPM ratio (pull-down/input).

As to “GATGATTGTTCTCCCAGCTGATGAATTAATCTTGTCGAGTAAACAAATTTTCCTAATCTTTCTGTTCAAGCGCCATCTAC”, the binding signal is 0.957 RPM ratio (pull-down/input).

Turning to “GATGATTGTTCTCCCAGCTGATGAATTTCGCAAATCGAGTAAACAAATTTTCCTAATCTTTCTGTTCAAGCGCCATCTAC”, the binding signal is 1.08 RPM ratio (pull-down/input).

As to “GATGATTGTTCTCCCAGCTGATGAATTAGATCTATCGAGTAAACAAATTTTCCTAATCTTTCTGTTCAAGCGCCATCTAC”, the binding signal is 0.973 RPM ratio (pull-down/input).

In the case of “GATGATTGTTCTCCCAGCTGATGAATTCGAAAACTCGAGTAAACAAATTTTCCTAATCTTTCTGTTCAAGCGCCATCTAC”, the binding signal was 0.926 RPM ratio (pull-down/input).

Take “GATGATTGTTCTCCCAGCTGATGAATTGTCCCCCTCGAGTAAACAAATTTTCCTAATCTTTCTGTTCAAGCGCCATCTAC”: the binding signal is 0.974 RPM ratio (pull-down/input).

Take “GATGATTGTTCTCCCAGCTGATGAATTCGATAGCTCGAGTAAACAAATTTTCCTAATCTTTCTGTTCAAGCGCCATCTAC”: the binding signal was 0.826 RPM ratio (pull-down/input).

For “GATGATTGTTCTCCCAGCTGATGAATTAGCAGGTTCGAGTAAACAAATTTTCCTAATCTTTCTGTTCAAGCGCCATCTAC”, the binding signal was 0.803 RPM ratio (pull-down/input).

With “GATGATTGTTCTCCCAGCTGATGAATTCGTCGCCTCGAGTAAACAAATTTTCCTAATCTTTCTGTTCAAGCGCCATCTAC”, the binding signal was 0.906 RPM ratio (pull-down/input).

As to “GATGATTGTTCTCCCAGCTGATGAATTTCGCCCCTCGAGTAAACAAATTTTCCTAATCTTTCTGTTCAAGCGCCATCTAC”, the binding signal is 0.825 RPM ratio (pull-down/input).

Consider “GATGATTGTTCTCCCAGCTGATGAATTTGGGCACTCGAGTAAACAAATTTTCCTAATCTTTCTGTTCAAGCGCCATCTAC”, for which the binding signal was 0.896 RPM ratio (pull-down/input).

As to “GATGATTGTTCTCCCAGCTGATGAATTGTTGGGTTCGAGTAAACAAATTTTCCTAATCTTTCTGTTCAAGCGCCATCTAC”, the binding signal was 1.26 RPM ratio (pull-down/input).

Consider “GATGATTGTTCTCCCAGCTGATGAATTTGGAGCATCGAGTAAACAAATTTTCCTAATCTTTCTGTTCAAGCGCCATCTAC”, for which the binding signal was 1.01 RPM ratio (pull-down/input).

On to “GATGATTGTTCTCCCAGCTGATGAATTTGATAGCTCGAGTAAACAAATTTTCCTAATCTTTCTGTTCAAGCGCCATCTAC”, for which the binding signal is 0.868 RPM ratio (pull-down/input).

“GATGATTGTTCTCCCAGCTGATGAATTTGCTTGGTCGAGTAAACAAATTTTCCTAATCTTTCTGTTCAAGCGCCATCTAC”: the binding signal was 1.04 RPM ratio (pull-down/input).

Consider “GATGATTGTTCTCCCAGCTGATGAATTGGAGGTATCGAGTAAACAAATTTTCCTAATCTTTCTGTTCAAGCGCCATCTAC”, for which the binding signal is 0.922 RPM ratio (pull-down/input).

For “GATGATTGTTCTCCCAGCTGATGAATTCCACGGCTCGAGTAAACAAATTTTCCTAATCTTTCTGTTCAAGCGCCATCTAC”, the binding signal is 0.718 RPM ratio (pull-down/input).

Turning to “GATGATTGTTCTCCCAGCTGATGAATTGGACCACTCGAGTAAACAAATTTTCCTAATCTTTCTGTTCAAGCGCCATCTAC”, the binding signal is 0.821 RPM ratio (pull-down/input).

For “GATGATTGTTCTCCCAGCTGATGAATTGCAGGACTCGAGTAAACAAATTTTCCTAATCTTTCTGTTCAAGCGCCATCTAC”, the binding signal was 1.04 RPM ratio (pull-down/input).

For the sequence “GATGATTGTTCTCCCAGCTGATGAATTCTTCGCTTCGAGTAAACAAATTTTCCTAATCTTTCTGTTCAAGCGCCATCTAC”, the binding signal was 0.889 RPM ratio (pull-down/input).

For “GATGATTGTTCTCCCAGCTGATGAATTCAGCGGATCGAGTAAACAAATTTTCCTAATCTTTCTGTTCAAGCGCCATCTAC”, the binding signal is 0.793 RPM ratio (pull-down/input).

On to “GATGATTGTTCTCCCAGCTGATGAATTTGAATGGTCGAGTAAACAAATTTTCCTAATCTTTCTGTTCAAGCGCCATCTAC”, for which the binding signal was 0.784 RPM ratio (pull-down/input).

Regarding “GATGATTGTTCTCCCAGCTGATGAATTTGTACGGTCGAGTAAACAAATTTTCCTAATCTTTCTGTTCAAGCGCCATCTAC”, the binding signal is 0.999 RPM ratio (pull-down/input).

On to “GATGATTGTTCTCCCAGCTGATGAATTGGGCCTTTCGAGTAAACAAATTTTCCTAATCTTTCTGTTCAAGCGCCATCTAC”, for which the binding signal was 0.774 RPM ratio (pull-down/input).

Consider “GATGATTGTTCTCCCAGCTGATGAATTACTCGTATCGAGTAAACAAATTTTCCTAATCTTTCTGTTCAAGCGCCATCTAC”, for which the binding signal is 1.17 RPM ratio (pull-down/input).

For “GATGATTGTTCTCCCAGCTGATGAATTTGGATCTTCGAGTAAACAAATTTTCCTAATCTTTCTGTTCAAGCGCCATCTAC”, the binding signal was 0.87 RPM ratio (pull-down/input).

For the sequence “GATGATTGTTCTCCCAGCTGATGAATTTCACGCGTCGAGTAAACAAATTTTCCTAATCTTTCTGTTCAAGCGCCATCTAC”, the binding signal is 0.963 RPM ratio (pull-down/input).

For the sequence “GATGATTGTTCTCCCAGCTGATGAATTCATCACGTCGAGTAAACAAATTTTCCTAATCTTTCTGTTCAAGCGCCATCTAC”, the binding signal was 0.907 RPM ratio (pull-down/input).

With “GATGATTGTTCTCCCAGCTGATGAATTCCACCCATCGAGTAAACAAATTTTCCTAATCTTTCTGTTCAAGCGCCATCTAC”, the binding signal is 0.823 RPM ratio (pull-down/input).

With “GATGATTGTTCTCCCAGCTGATGAATTTGGCCTATCGAGTAAACAAATTTTCCTAATCTTTCTGTTCAAGCGCCATCTAC”, the binding signal is 0.852 RPM ratio (pull-down/input).

In the case of “GATGATTGTTCTCCCAGCTGATGAATTTATACCCTCGAGTAAACAAATTTTCCTAATCTTTCTGTTCAAGCGCCATCTAC”, the binding signal was 1.02 RPM ratio (pull-down/input).

As for “GATGATTGTTCTCCCAGCTGATGAATTGCCGAACTCGAGTAAACAAATTTTCCTAATCTTTCTGTTCAAGCGCCATCTAC”, the binding signal was 0.889 RPM ratio (pull-down/input).

For the origin of these results see publication PMC12820563, “FoxP3 forms a head-to-head dimer in vivo and stabilizes its multimerization on adjacent microsatellites”.
